From the RNAGym collection of RNA variant scans (doi:10.7554/elife.90254) come the findings set out here.

Read counts are not given, so values of variants with three or more changes are uncertain.

B1: LINE1-full (parent)
chain: UACGUAGGUGGUUUUCCCCUGAUAGUGCUAAGGGGGCCUGGAAGUUUGGACUGGGCAGAGCUCAACACAGCGUGGCAAAGUGGCUGUGGCUAGACUGCCUCUCUGGAUUCCUCGUCACUCAGCAGGGCAUCUCUGAGAGAAAUGCC

The data set covers variants of B1. Briefly: self-cleavage, relative activity (ratio to wild type); higher = more cleavage; in vitro, sequencing; the parent is a self-cleaving ribozyme.
On to UACGUAGGUGGUUUUACCCUGAUAGUGCUAAGGGGGCCUGGAAGUUUGGACUGGGCAGAGCUCAACACAGCGUGGCAAAGUGGCUGUGGCUGGACUGCCUCUCUGGAUUCCUCGUCACUCAGCAGGGCAUCUCUGAGAGGAAUGCC, for which the self-cleavage was 0.05.
With UACGUAGGUGGUUUUCACCUGAUAGUGCUAAGGGGGCCUGGAAGUUUGGGCUGGGCGGAGCUCAACACAGCGUGGCAAAGUGGCUGUGGCUAGACUGCCUCUCUGGAUUCCUCGUCACUCAGCAGGGCAUCUCUGAGAGAAAAGCC, the self-cleavage came to 0.77.
For the variant UACGUAGGUGGUUUGCCCCUGAUAGUGCUAAGGGGGCCCGGAAGUUUGGACUGGGCAGAGCUCAACGCAGCGUGGCAAAGUGGCUGUGGCUAGACUGCCUCUCUGGAUUCCUCGUCACUCAGCAGGGCAUCUCUGAGAGAAAUGCC, the self-cleavage came out at 0.
In the case of UACGUAGGUGGUUUUUCCCUGAUAGUGCUAAGGGGGCCUGGAAGUUUGGACUGGGCAGAGCCCAACACAGCGUGGCAAAGUGGCUGUGGCUAGACUGCCCCUCUGGAUUCCUCGUCACUCAGCAGGGCAUCUCUGAGAGAAAUGCC it was 0.09; in that of UACGUAGGUGGUUUUUCCCCGAUAGUGCUAAGGGGGCCUGGAAGUUUGGACUGGGCAGAGCUCAACACAGCGUGGCAAAGUGGCUGUGGCUAGACUGCCUCUCUGGAUUCCUCGUCACUCCGCAGGGCAUCUCUGAGAGAAAUGCC, 1.36; in that of UACGUAGGUGGUUUCCCCCUGAUAGUGCUAAGGGGGCCUGGAAGUUUGGACUGGGCAGAGCUCAACACAGCGUGGCAAAGUGGCUGUGGCUAGACUGCCUCUCUGGAUUCCUCGUCACUCAGCAGGGCAUCCCUGAGGGAAAUGCC, 2.85.
As for UACGUAGGUGGUUUUUCCCUGAUAGUGCUAAGGGGGCCUGGAAGUUUGGACUGGGCAGAGCUCAACACAGCGUGGCAAAGUGGCUGUGGCUAGACCGCCUCUCUGGAUUCCUCGUCACUCAGCAGGGCAUCUCGGAGAGAAAUGCC, the self-cleavage was found to be 0.12.
On to UACGUAGGUGGUUUGCCCCUGAUAGUGCUAAGGGGGCCUGGAAGUUUGGACUGGGCAGAGCUCAACACAGCGUGGCAAAGUGGCUGUGGCUAGACUGCCUCUCUGGAUUCCCCGUCACUCAGCAGGGCGUCUCUGAGAGGAGUGCC, for which the self-cleavage was 0.
With UACGUAGGUGGUUUUUCCCUGAUAGUGCUAAGGGAGCCUGGAAGUUCGGACUGGGCAGAGCUCAACACAGCGUGGCAAGGUGGCUGUGGCUAGACUGCCUCUCUGGAUUCCUCGUCACUCAGCAGGGCAUCUCUGAGAGAAAUGCC, the self-cleavage turned out to be 0.89.
As to UACGUAGGUGGUUUUCACCUGAUAGUGCUAAGGGGGCCUGGAAGUUUGGACUGGGCAGAGCUCAACUCAGCGUGGCAAAGCGGCUGUGGCUAGACUGCCUCUCUGGAUUCCUCGUCACUCAGCAGGGCAUCUCUGAGAGAAAUGCC, the self-cleavage was found to be 0.
The value for UACGUAGGUGGUUUUUCCCUGGUAGUGCUAAGGGGGCCUGGAAGUUUGGACUGGGCAGAGCUCAACACAGCGUGGCAAAGUGGCUGUGGCUAGACUGCCUCUCUGGAUUCCCCGUCACUCAGCAGGGCAUCUCUGAGAGAAAUGCC was 2.04; that for UACGUAGGUGGUUUUUCCCUGAUAGUGCUAAGGGGGCCUGGAAGUUUGGACUGGGCAGAGCUCAACACAGCGUGGAAAAGUGGCUGUUGCUAGACUGCCUCUCCGGAUUCCUCGUCACUCAGCAGGGCAUCUCAGAGAGAGAUGCC was 0.04.
The value for UACGUAGGUGGUUUUUCCCUGAUAGUGCUAAGGGGGCCUGGAAGUUUGGUCUGGUCAGAGCUCAACACAGCGUGGCAAAGUGGCUGUGGCUAGACUGCCUCUCUGGAUUCCUCGUCACUCAGCAGGGCAUCUCUGAGAGAAAUGCC was 0.03; that for UACGUAGGUGGUUUUUCCCUGAUAGUGCUAAGGGGGCCUGGAAGCUUGGACUGGGCAGAGCUCAACACAGCGUGGCAAAGUGGCUGUGGCUAGACUGCCUCUCUGGAUUCCUCGUCUCUCAGCAGGGCAUCUCUGAGAGAGAUGCC was 0.54; that for UACGUAGGUGGUUUUUCCCUGAUAGUGCUAAGAGGGCCUGGAAGUUUGGACUGGGCAGAGCUCAACACAGCGAGGCAAAGUGGCUGUGGCUAGACUGCCUCUCCGGAUUCCUCGUCACUCAGCAGGGCAUCUCUGAGAGAAAUGCC was 0.58.
For UACGUAGGUGGUUUUACCCUGAUAGUGCUAAGGGGGCCUGGAAGUUUGGACUGGGCAGAGCUCAACACAGCGUGGCAAAGUGGCUGUAGCUAGACUGCCUCUCUGGAUUCCUCGUCACUCAGCAGGGCAUCUCUGAGGGAAAUGCC, the self-cleavage is 0.06.
The value for UACGUAGGUGGUUUCCCCCUGAUAGUGCUAAGGGGGCCUGGAAGUUUGGACUGGGCAGAGCUCAACACAGCGUGGCAAAGUGGCUGUGGCUAGACUGCCUCUCUGGAUUCCACGUCACUCAGCAGGGCAUCUCUGAGGGAAAUGCC was 1.26.
As for UACGUAGGUGGUUUUACUCUGAUAGUGCUGAGGGGGCCUGGAAGUUUGGACUGGGCAGAGCUCAACACAGCGUGGCAAAGUGGCUGUGGCUAGACUGCCUCUCUGGAUUCCUCGUCACUCAGCAGGGCAUCUCUGAGAGAAAUGCC, the self-cleavage is 0.5.
Consider UACGUAGGUGGUUUUUCCCUGAUAGUGCUAAGGGGGCCUGGAAGUUUGGACUGGGCAGAGCUCAACACAGCGUGGCAAAUUGGCUGUGGCUAGACUGCCUCUCUGGAUUCCUCGUCACUCAGCAGGACAUCUCUGAGAGAAAUGCU, for which the self-cleavage turned out to be 1.4.
The value for UACGUAGGUGGUUUUUCCCUGAUAGUGCUAAGGGGGCCUGGAAGUUUGGACUGGGCAGAGCUCGACACAGCGUGGCAAAGUGGCUGUGGCUAGUCUGCCUCUCUGGAUUCCUCGUCACUCAGCAGGGCAUCUCUGAGAGAAAUGCC was 0.28.
